Reference: article PMC9911399, “Two distinct binding modes provide the RNA-binding protein RbFox with extraordinary sequence specificity”
Changes are numbered by the printed parent chain; changes in the protein carry UniProt numbers. Some of the results follow.

B1: UGCUGAC (DNA:RNA)
RNA: GGGAGACCGGAAUUCAGAUUGUCCUGCUGACUUAAAUCCCGUCGUAGCCACCA
DNA 1: CAATCTGAATTCCGGTCTCCC
DNA 2: TGGTGGCTACGACGGGATT
B2: UCGCAAC (DNA:RNA)
RNA: B1 RNA with G26C, C27G, U28C, G29A
DNA 1: CAATCTGAATTCCGGTCTCCC
DNA 2: TGGTGGCTACGACGGGATT
B3: CCGUCGU (DNA:RNA)
RNA: B1 RNA with U25C, G26C, C27G, G29C, A30G, C31U
DNA 1: CAATCTGAATTCCGGTCTCCC
DNA 2: TGGTGGCTACGACGGGATT
B4: UUCGUUG (DNA:RNA)
RNA: B1 RNA with G26U, U28G, G29U, A30U, C31G
DNA 1: CAATCTGAATTCCGGTCTCCC
DNA 2: TGGTGGCTACGACGGGATT
B5: CUACAGG (DNA:RNA)
RNA: GGGAGACCGGAAUUCAGAUUGUCCCUACAGGUUAAAUCCCGUCGUAGCCACCA
DNA 1: CAATCTGAATTCCGGTCTCCC
DNA 2: TGGTGGCTACGACGGGATT
B6: CACUGUC (DNA:RNA)
RNA: B1 RNA with U25C, G26A, A30U
DNA 1: CAATCTGAATTCCGGTCTCCC
DNA 2: TGGTGGCTACGACGGGATT
B7: ACCGAUU (DNA:RNA)
RNA: B5 RNA with C25A, U26C, A27C, C28G, G30U, G31U
DNA 1: CAATCTGAATTCCGGTCTCCC
DNA 2: TGGTGGCTACGACGGGATT
B8: GAACGUA (DNA:RNA)
RNA: B5 RNA with C25G, U26A, A29G, G30U, G31A
DNA 1: CAATCTGAATTCCGGTCTCCC
DNA 2: TGGTGGCTACGACGGGATT
B9: CAAGGGA (DNA:RNA)
RNA: B5 RNA with U26A, C28G, A29G, G31A
DNA 1: CAATCTGAATTCCGGTCTCCC
DNA 2: TGGTGGCTACGACGGGATT

target: T1, RBFOX1 RRM (Homo sapiens, UniProt Q9NWB1 109-208); assay: EMSA; HiTS-Eq, 1 nM pool, 10 min; buffer printed only for the single-RNA assays: 10 mM Tris pH 7.5, 150 mM NaCl, 3.4 mM EDTA, 0.001% NP-40, 30 C; conditions: tags: His6 N-terminal (pET28a); label: 5' 32P
T1 sequence: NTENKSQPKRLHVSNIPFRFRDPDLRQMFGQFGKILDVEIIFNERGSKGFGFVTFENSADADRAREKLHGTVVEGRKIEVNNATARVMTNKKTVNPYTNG
How it was run: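 A pool of RNA with 7 randomized nucleotides, 5′-radiolabelled and with DNA-annealed flanks, was equilibrated at 1 nM for 10 min in 50 µL with purified RbFox RRM, wild type or mutant, across increasing protein concentrations. Free RNA was separated by 8% native PAGE, excised, reverse-transcribed, barcoded by PCR and sequenced. Relative association constants were obtained from read-count changes of each RNA species versus the control reaction and normalised to the cognate motif.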

Row | Binder | binding signal
1 | B1 | 0.0249 KA relative to UGCAUGU
2 | B2 | 0.0108 KA relative to UGCAUGU
3 | B3 | 0.00963 KA relative to UGCAUGU
4 | B4 | 0.0218 KA relative to UGCAUGU
5 | B5 | 0.0105 KA relative to UGCAUGU
6 | B6 | 0.00979 KA relative to UGCAUGU
7 | B7 | 0.00358 KA relative to UGCAUGU
8 | B8 | 0.0109 KA relative to UGCAUGU
9 | B9 | 0.00367 KA relative to UGCAUGU
